The target of this test is Nonstructural protein 3 (Zika virus) (UniProt A0A024AXB9).
The mark [1] stands for this setting: PRVABC59, Concentration 15.0 uM, Number of replicates 1.0.
[2] abbreviates: PRVABC59, Concentration 50.0 uM, Number of replicates 1.0.

About 160 (5.9%) of roughly 2,700 compounds showed an effect of 50% or more. The list shows a part of the results.

UniProt A0A024AXB9, sequence (A0A024AXB9 as listed by the source): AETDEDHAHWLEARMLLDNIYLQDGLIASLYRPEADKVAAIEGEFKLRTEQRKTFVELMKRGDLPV

Usually inhibition stands for the drop in the measured response relative to a control, in per cent. `Cc1cc(CO)c2cccc(C[C@H](NC(=O)Cc3cccc(CN)c3)C(=O)O)c2n1`: the inhibition runs as follows: (PRVABC59, Concentration 49.95 uM, Number of replicates 2.0, Standard deviation 1.661005908968333 %) -1.72%; (PRVABC59, Concentration 99.9 uM, Number of replicates 2.0, Standard deviation 1.2746087015891263 %) 6.96%.

With `COc1cc(CCNC(=O)c2cc(Cl)ccc2NS(=O)(=O)c2ccc(Oc3ccccc3Cl)cc2)cc(OC)c1`, under setting [1], the inhibition turned out to be 28.3%.

For the compound `Cn1nccc1NS(=O)(=O)c1ccc(Oc2ccccc2)cc1`, the inhibition is, setting by setting: (PRVABC59, Concentration 49.5 uM, Number of replicates 2.0, Standard deviation 3.2732797772270357 %) 0.602%; (PRVABC59, Concentration 99.01 uM, Number of replicates 2.0, Standard deviation 3.1579316394829813 %) 2.37%; (PRVABC59, Concentration 198.0 uM, Number of replicates 2.0, Standard deviation 2.940293290063805 %) 6.53%.

`O=Cc1ccc(N2CCC(C(=O)N3CCCN(CCCc4ccccc4)CC3)CC2)cc1`: the inhibition under setting [2] is 26.9%.

As to `Cc1cc(CO)c2cccc(Cc3cccc(C(=O)N(c4ncccn4)S(=O)(=O)c4ccc(N)cc4)c3)c2n1`, the inhibition reads like this: (PRVABC59, Concentration 49.95 uM, Number of replicates 2.0, Standard deviation 0.9333358068338657 %) 1.86%; (PRVABC59, Concentration 99.9 uM, Number of replicates 2.0, Standard deviation 0.5295896500552713 %) 17.8%.

Turning to `CCc1cc(Br)ccc1NC(=O)c1cc(Cl)ccc1NS(=O)(=O)c1ccc(Oc2ccccc2Cl)cc1`, under setting [1], the inhibition came to 41.5%.

As for `N#Cc1cc(F)c(NC(=O)c2cc(Cl)ccc2NS(=O)(=O)c2ccc(Oc3ccccc3Cl)cc2)cc1F`, the inhibition under setting [1] was 24.1%.

For the compound `O=Cc1ccc(N2CCC(C(=O)N3CCN(CCc4cccs4)CC3)CC2)cc1`, under setting [2], the inhibition stood at 19.2%.

For the compound `O=Cc1ccc(N2CCC(C(=O)Nc3cccc(F)c3[N+](=O)[O-])CC2)cc1`, the inhibition under setting [2] was 30.3%.

As for `O=C(NCCc1cccc2ccccc12)c1cc(Cl)ccc1NS(=O)(=O)c1ccc(Oc2ccccc2Cl)cc1`, under setting [1], the inhibition stood at 11%.

On to `Cc1cc(CO)c2cccc(NC(=O)C3(C(N)=O)CC3)c2n1`, for which the inhibition by setting is: (PRVABC59, Concentration 49.95 uM, Number of replicates 2.0, Standard deviation 2.634525996312183 %) 7.37%; (PRVABC59, Concentration 99.9 uM, Number of replicates 2.0, Standard deviation 2.529144039344272 %) 18.3%.

For `O=C(c1cc(Cl)ccc1NS(=O)(=O)c1ccc(Oc2ccccc2Cl)cc1)N1CCN(C(=O)[C@@H]2COc3ccccc3O2)CC1`, the inhibition under setting [1] is 19.9%.

As for `Cc1cc(NC(=O)C2CCN(c3ccc(C=O)cc3)CC2)c(Cl)cc1F`, the inhibition under setting [2] came out at 22.4%.

With `O=C(Nc1cccc(Cl)c1Br)c1cc(Cl)ccc1NS(=O)(=O)c1ccc(Oc2ccccc2Cl)cc1`, under setting [1], the inhibition came to 25.4%.

On to `Cc1c(C2CCN(C(=O)OC(C)(C)C)CC2)cnn1CC(=O)N[C@H]1CCS(=O)(=O)C1`, for which the inhibition by setting is: (PRVABC59, Concentration 49.5 uM, Number of replicates 2.0, Standard deviation 2.871590407729197 %) -1.78%; (PRVABC59, Concentration 99.01 uM, Number of replicates 2.0, Standard deviation 2.4383678198467202 %) -1.5%; (PRVABC59, Concentration 198.0 uM, Number of replicates 2.0, Standard deviation 2.1998965466264124 %) -1.28%.

As to `CN(C(=O)c1cc(Cl)ccc1NS(=O)(=O)c1ccc(Oc2ccccc2Cl)cc1)C(c1ccccc1)c1ccccc1`, the inhibition under setting [1] is 25.2%.

Consider `Cc1cnc(NC(=O)C2CCN(c3ccc(C=O)cc3)CC2)c([N+](=O)[O-])c1`, for which the inhibition under setting [2] amounted to 6.33%.

Take `Cc1sc(NC(=O)C2CCN(c3ccc(C=O)cc3)CC2)nc1-c1ccc(Cl)cc1`: the inhibition under setting [2] stood at 33.1%.

As for `Cc1cc(CO)c2cccc(Nc3cncc(C(=O)O)c3)c2n1`, the inhibition was -6.6% (PRVABC59, Concentration 49.95 uM, Number of replicates 2.0, Standard deviation 3.251758163384524 %) and -3.84% (PRVABC59, Concentration 99.9 uM, Number of replicates 2.0, Standard deviation 2.9055058713587925 %).

Turning to `O=Cc1ccc(N2CCC(C(=O)Nc3ccc([N+](=O)[O-])cc3Cl)CC2)cc1`, the inhibition under setting [2] was 39.8%.

For the compound `COc1cc(CS(=O)(=O)CCC(C)(C)OC)nc(N2CCNCC2)n1`, the inhibition (PRVABC59, Concentration 49.5 uM, Number of replicates 2.0, Standard deviation 3.2478539322195656 %) came out at 3.44%; the inhibition (PRVABC59, Concentration 99.01 uM, Number of replicates 2.0, Standard deviation 0.002563371326432575 %) was found to be 3.67%; the inhibition (PRVABC59, Concentration 198.0 uM, Number of replicates 2.0, Standard deviation 1.361176305381774 %) was determined as 3.07%.

On to `O=Cc1ccc(N2CCC(C(=O)NCc3cc(C(F)(F)F)ccc3C(F)(F)F)CC2)cc1`, for which the inhibition (PRVABC59, Concentration 10.0 uM, Number of replicates 1.0) is -8.15%.

As for `CCOc1ccc(N2CCN(C(=O)c3cc(Cl)ccc3NS(=O)(=O)c3ccc(Oc4ccccc4Cl)cc3)CC2)cc1`, under setting [1], the inhibition was determined as 2.48%.

Regarding `O=C(c1cc(Cl)ccc1NS(=O)(=O)c1ccc(Oc2ccccc2Cl)cc1)N1CCN(c2cnccn2)CC1`, the inhibition under setting [1] is -5.97%.

For the compound `O=C(Nc1ncc(Br)c(C(F)(F)F)n1)c1cc(Cl)ccc1NS(=O)(=O)c1ccc(Oc2ccccc2Cl)cc1`, the inhibition under setting [1] is 24.7%.

In the case of `Cn1cc2ccc(C(=O)N3CC[C@H](c4c[nH]c5ccccc45)C3)cc2n1`, the inhibition runs as follows: (PRVABC59, Concentration 49.5 uM, Number of replicates 2.0, Standard deviation 1.3627602471690863 %) 0.678%; (PRVABC59, Concentration 99.01 uM, Number of replicates 2.0, Standard deviation 2.2047700920868487 %) 3.89%; (PRVABC59, Concentration 198.0 uM, Number of replicates 2.0, Standard deviation 2.209951457055384 %) 10.5%.

Turning to `NCc1cn([C@H]2CCCN(C(=O)c3cccc4cn[nH]c34)C2)nn1`, the inhibition (PRVABC59, Concentration 49.5 uM, Number of replicates 2.0, Standard deviation 2.125573466336574 %) is -0.091%; the inhibition (PRVABC59, Concentration 99.01 uM, Number of replicates 2.0, Standard deviation 0.8304286285168175 %) came to 3.6%; the inhibition (PRVABC59, Concentration 198.0 uM, Number of replicates 2.0, Standard deviation 0.5697829078439883 %) amounted to 9.87%.

Take `O=C(Nc1nc(CO)cs1)[C@]1(c2ccc(F)cc2)CCCNC1`: the inhibition is, setting by setting: (PRVABC59, Concentration 49.5 uM, Number of replicates 2.0, Standard deviation 4.196319614731872 %) 0.769%; (PRVABC59, Concentration 99.01 uM, Number of replicates 2.0, Standard deviation 3.2888686531591844 %) 2.69%; (PRVABC59, Concentration 198.0 uM, Number of replicates 2.0, Standard deviation 2.8761580092162924 %) 3.38%.

Consider `CCc1cccc(S(=O)(=O)Nc2ccc(Cl)cc2C(=O)NC)c1`, for which, under “PRVABC59, Concentration 49.5 uM, Number of replicates 2.0, Standard deviation 0.7566890081243395 %”, the inhibition is -8.25%.

Take `O=Cc1ccc(N2CCC(C(=O)N3CCN(CCOCCO)CC3)CC2)cc1`: the inhibition under setting [2] amounted to 21.2%.

Regarding `N#C[C@@H](NC(=O)c1cc(Cl)ccc1NS(=O)(=O)c1ccc(Oc2ccccc2Cl)cc1)c1ccc(F)cc1`, under setting [1], the inhibition is 28.7%.

The values above are taken from ChEMBL document CHEMBL5606458, “ASAP - ZIKV NS2B-NS3 protease fluorescence single point” (2024).
